Binding data for 5 substances are collected here from publication PMC13144346.

By UniProt entry, the sequences of proteins in these tests, tags left out. Where a name states a change or a piece, a line headed by the entry shows the natural chain unless it says otherwise. Residues count along the entry.
UniProt Q7L804: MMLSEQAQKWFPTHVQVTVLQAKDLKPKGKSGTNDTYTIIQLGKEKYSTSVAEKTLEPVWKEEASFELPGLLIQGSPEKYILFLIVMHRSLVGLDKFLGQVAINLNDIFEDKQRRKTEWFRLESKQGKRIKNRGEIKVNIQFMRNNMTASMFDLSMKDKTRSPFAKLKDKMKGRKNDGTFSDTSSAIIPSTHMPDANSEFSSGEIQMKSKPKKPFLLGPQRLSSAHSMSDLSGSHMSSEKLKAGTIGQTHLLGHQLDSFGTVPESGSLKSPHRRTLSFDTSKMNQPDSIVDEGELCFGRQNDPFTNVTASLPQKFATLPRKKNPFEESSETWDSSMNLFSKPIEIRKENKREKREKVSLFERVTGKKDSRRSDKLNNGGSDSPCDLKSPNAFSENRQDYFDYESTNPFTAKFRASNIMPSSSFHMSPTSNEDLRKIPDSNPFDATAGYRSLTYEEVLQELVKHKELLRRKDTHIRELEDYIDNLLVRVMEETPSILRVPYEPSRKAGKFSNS
Flag-FIP2_(1-192): residues 1-192 of Q7L804
Flag-FIP2_(193-512): residues 193-512 of Q7L804
UniProt Q96P20: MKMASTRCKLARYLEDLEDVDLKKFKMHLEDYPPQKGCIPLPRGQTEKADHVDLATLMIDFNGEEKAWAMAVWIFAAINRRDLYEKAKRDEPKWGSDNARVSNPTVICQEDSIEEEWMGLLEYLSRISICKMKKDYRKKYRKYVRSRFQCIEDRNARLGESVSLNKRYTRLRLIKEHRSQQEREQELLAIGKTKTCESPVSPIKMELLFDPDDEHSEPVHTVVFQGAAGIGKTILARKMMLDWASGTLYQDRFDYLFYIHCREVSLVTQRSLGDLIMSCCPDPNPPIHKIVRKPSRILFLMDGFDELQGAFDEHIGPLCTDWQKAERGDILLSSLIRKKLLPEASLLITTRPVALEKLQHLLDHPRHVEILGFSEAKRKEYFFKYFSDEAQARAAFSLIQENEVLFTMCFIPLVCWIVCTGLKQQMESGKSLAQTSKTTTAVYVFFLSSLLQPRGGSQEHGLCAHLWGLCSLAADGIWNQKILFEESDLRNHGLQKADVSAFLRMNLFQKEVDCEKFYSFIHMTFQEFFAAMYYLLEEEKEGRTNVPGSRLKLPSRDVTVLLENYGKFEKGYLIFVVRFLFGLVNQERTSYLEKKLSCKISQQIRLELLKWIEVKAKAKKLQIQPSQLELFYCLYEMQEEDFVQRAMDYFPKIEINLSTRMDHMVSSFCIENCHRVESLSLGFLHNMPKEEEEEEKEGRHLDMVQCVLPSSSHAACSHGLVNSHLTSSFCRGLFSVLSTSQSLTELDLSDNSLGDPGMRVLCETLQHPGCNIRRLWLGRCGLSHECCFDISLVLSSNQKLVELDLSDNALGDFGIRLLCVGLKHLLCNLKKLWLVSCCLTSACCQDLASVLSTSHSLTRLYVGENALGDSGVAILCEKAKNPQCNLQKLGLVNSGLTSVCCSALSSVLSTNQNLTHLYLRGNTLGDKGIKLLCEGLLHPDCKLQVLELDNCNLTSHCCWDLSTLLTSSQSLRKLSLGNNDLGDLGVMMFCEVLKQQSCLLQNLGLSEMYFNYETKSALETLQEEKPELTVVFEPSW
Flag-NLRP3_(132-1036): residues 132-1036 of Q96P20
UniProt P62491: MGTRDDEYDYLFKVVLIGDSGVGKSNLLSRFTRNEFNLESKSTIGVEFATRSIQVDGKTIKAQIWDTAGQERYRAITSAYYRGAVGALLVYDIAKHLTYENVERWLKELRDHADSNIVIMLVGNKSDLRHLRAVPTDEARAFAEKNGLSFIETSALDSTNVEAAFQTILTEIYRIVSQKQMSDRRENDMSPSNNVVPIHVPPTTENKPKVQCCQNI
UniProt Q9ULZ3: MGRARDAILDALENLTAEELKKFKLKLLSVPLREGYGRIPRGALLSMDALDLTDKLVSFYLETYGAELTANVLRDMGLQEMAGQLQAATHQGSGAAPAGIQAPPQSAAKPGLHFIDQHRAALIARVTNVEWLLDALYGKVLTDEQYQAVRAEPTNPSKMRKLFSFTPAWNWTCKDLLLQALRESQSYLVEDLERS

Holding throughout (experiment): co-IP; HEK293T cells co-transfected for 48 h (24 h for Fig. 5C, E), with or without ECFP-Rab11; lysis in 150 mM NaCl, 50 mM Tris-HCl pH 8.0, 1 mM EDTA, 1% NP-40; Flag-tagged bait on anti-Flag (M2) affinity agarose, 4 °C, 3 h or overnight; four washes; immunoblot
The target in assay [1] is Flag-FIP2 (full-length FIP2) (human) (UniProt Q7L804).
The target in assay [2] is Flag-NLRP3_(132-1036) (human) (UniProt Q96P20).
Assay [3] has as its target Flag-NLRP3 (full length human NLRP3) (human) (UniProt Q96P20).
Assay [4] has as its target Flag-FIP2_(193-512) (human) (UniProt Q7L804).
For assay [5], the target named is Flag-FIP2_(1-192) (human) (UniProt Q7L804).

These are yes or no findings as the source states them, for the method shown. Binding seen in cells or lysates may run through a third protein. Some binding calls cover weakened binding; strength is not graded here.

With “ECFP-Rab11 (hsRab11a in pECFP-C1) (from UniProt P62491 1-216)”, the binding entry in assay [1] is given as “binds”.
For “EGFP-FIP2 (EGFP-Rab11FIP2) (from UniProt Q7L804 1-512)”, the values for the binding result in assay [2] and in assay [3] were “no binding” and “binds”, respectively.
As for “EGFP-FIP2_(I481E) (from UniProt Q7L804 1-512)”, the binding result in assay [3] is “no binding”.
In the case of “EGFP-NLRP3 (hsNLRP3 in pEGFP-C2) (from UniProt Q96P20 1-1036)”, the binding entry in assay [4] is given as “no binding”; in assay [5] it was “binds”; in assay [1], “binds”.
On to “HA-ASC (hsASC-HA in pCI) (from UniProt Q9ULZ3 1-195)”, for which the binding result in assay [1] was “no binding”.
